Experimental data taken from US4769235A, “Immunodominant epitope of the circumsporozoite surface protein” (New York University, priority 1984, dated 1988).
“Also recorded” adds a separate entry of the source. Part of at least one peptide drawing is inferred or uncertain, most often the ends. Some compounds share one wording; it may come from a single statement. Residues, ends and D or L forms follow the SMILES beside them. No end group written: not given here.

What was measured:
[1] = system: monoclonal anti-CS / CS protein of P. knowlesi; assay: Reactivity of synthetic peptides with monoclonal anti-CS (antibody not specified); assay type: binding; details: antibody not given; compared with (1-12) or (5-12) where stated
Experimental: Four monoclonal antibodies (2G3, 5H8, 8B8, and 8E11) were used in immunoactivity testing of synthesized shorter length analogs of the 12-peptide. The purpose was further localization and identification of the epitope contained therein.
After synthesis, cleavage and purification, the peptides were tested for reactivity with monoclonal anti-CS, preferably partially purified. The anti-CS used in these tests were produced by ascites tumor induction using hybridoma cells resulting from the fusion of plasmacytoma cells with spleen cells of a mouse immunized with the parasite, as described by Cochrane, A. H. et al, supra, and as disclosed in the Malaria Vaccine patent application.
(§1) The immunoactivity of the synthetic peptides was evaluated by measuring their ability to inhibit the reaction between the monoclonal anti-CS and the antigen (CS protein). Antigen was purified from sporozoites, as disclosed in the Malaria Vaccine patent application and as also described by Vanderberg, supra, and Zavala, F., et al, supra, 1982, is preferably employed using ^125 I-labeled antibody.
(§2) Competitive inhibition of the antigen-antibody reaction by the thus synthesized peptides was measured by the following radioimmunoassay. P. knowlesi sporozoite CS protein was used as the antigen.
(§3) (a) Preparation of antigen: 3,000 purified P. knowlesi sporozoites (Vanderberg et al., Military Medicine 134:1183, 1969) in 50 μl of phosphate buffered saline (PBS) containing protease inhibitors, were delivered to the bottom of polystyrene (Falcon 3911 plate, B-D and Co., Oxnard, Calif.) microtiter plates, which were sealed with parafilm and frozen at -70° C. for at least ten minutes. The plates were then allowed to defrost slowly at room temperature. This procedure was repeated six times. Then the plates were incubated at 4° C. overnight, and at 56° C. for five minutes. The P. knowlesi extract was then removed from the wells and these were washed three times with PBS containing 1% bovine serum albumin (BSA) and 0.1% NaN3. The wells were then filled with PBS-BSA-NaN3 for a few hours at room temperature.
(§4) All synthetic peptides were dissolved in PBS at a concentration of 10 mM and subsequently diluted serially in PBS-1% BSA/0.1% NaN3. Twenty-five μl of serial dilutions of each peptide were added to the wells coated with antigen. Control wells received only the diluent. Then, 25 μl of the ^125 I-labelled monoclonal antibody (about 5-10ng, 10 ^5 cpm) were added to the wells. The microtiter plates were incubated at 4° C. for 18 hours, washed 5 times with PBS-BSA-NaN3 and then the wells were counted for well-bound antibody. (LKB 1260 Muilti-gamma γ-counter LKB Instruments, Inc., Gaithersburg, Md.).

[2] = target: binding of monoclonal antibody 8B8 to the CS protein P. knowlesi; assay: Inhibition radioimmunoassay: binding of 125I-labelled monoclonal antibody 8B8 to P. knowlesi CS protein; details: for IC50: head prints (×5), radiolabeled 8B8, CS protein P. knowlesi immobilized on wells, 4° C. for 18 hours, read-out: Molar concentration of peptide (×5) necessary for 50% inhibition of binding of monoclonal antibody 8B8; for Inhibitory activity on binding of monoclonal antibody 8B8 to CS protein (in words): text summary of FIG. 4 / Table 3
Experimental: as §1, §2, §3, §4
(§5) The antibodies (above) and peptides (below) were labeled with ^25 I using Iodogen (Pierce Chemical Co., Rockford, Ill.) or Boulton-Hunter reagent (Amerisham Corp., Arlington, Hts., Ill.), according to the instructions of the manufacturers.
(§6) The inhibiting activity of (1-12) and (1-24) on the binding of the radiolabelled antibodies to the P. knowlesi sporozoite CS protein extracted as described in Example 2 was investigated. The antigen was immobilized on the microtiter wells. […] By contrast, the binding of antibody 8E11 was inhibited only by (1-24).
(§7) The series of shorter analogs and one peptide overlapping two epitopes (7-6) shown in Table 1 was used to analyze the specificity of the 2G3, 5H8, and 8B8 antibodies using the inhibition immunoassays described in Examples 2 and 3. […] On a molar basis, their activities were similar, although in some instances the larger peptides appeared to be slightly better inhibitors.

[3] = target: binding of monoclonal antibody 5H8 to the CS protein P. knowlesi; assay: Inhibition radioimmunoassay: binding of 125I-labelled monoclonal antibody 5H8 to P. knowlesi CS protein; details: for IC50: head prints (×5), radiolabeled 5H8, CS protein P. knowlesi immobilized on wells, 4° C. for 18 hours, read-out: Molar concentration of peptide (×5) necessary for 50% inhibition of binding of monoclonal antibody 5H8; for Inhibitory activity on binding of monoclonal antibody 5H8 to CS protein (in words): summary of FIGS. 1, 3 / Table 3
Experimental: as §1, §2, §3, §4, §5, §6, §7

[4] = system: binding of monoclonal antibody 2G3 to the CS protein P. knowlesi; assay: Inhibition radioimmunoassay: binding of 125I-labelled monoclonal antibody 2G3 to P. knowlesi CS protein; details: for Inhibitory activity on binding of monoclonal antibody 2G3 to CS protein (in words): FIGS. 1, 2 / Table 3; for IC50: head prints (×5), radiolabeled 2G3, CS protein P. knowlesi immobilized on wells, 4° C. for 18 hours, read-out: Molar concentration of peptide (×5) necessary for 50% inhibition of binding of monoclonal antibody 2G3
Experimental: as §1, §2, §3, §4, §5, §6, §7

Molecule	Reactivity with monoclonal anti-CS (in words) [1]	IC50 [2]	Inhibitory activity on binding of monoclonal antibody 8B8 to CS protein (in words) [2]	IC50 [3]	Inhibitory activity on binding of monoclonal antibody 5H8 to CS protein (in words) [3]	Inhibitory activity on binding of monoclonal antibody 2G3 to CS protein (in words) [4]	IC50 [4]
ANAGQPQAQGDG-NH2 [Peptide 7-6, Ala7 -Asn8 -Ala9 -Gly10 -Gln11 -Pro12 -Gln1 -Ala2 -Gln3 Gly4 -Asp5 -Gly6]	inactive	–	–	–	–	–	–
GDGANAGQP-NH2 [Peptide 4-12]	substantially identical; also recorded: very efficient inhibitors	0.001 nM	almost identical; also recorded: strongly inhibitory	0.001 nM	strongly inhibitory	almost identical; also recorded: strongly inhibitory	0.01 nM
GANAGQP-NH2 [Peptide 6-12]	–	0.1 nM	considerable drop in activity	1 nM	considerable drop in activity	considerable drop in activity	0.1 nM
C[C@H](N)C(=O)NCC(=O)N[C@@H](CCC(N)=O)C(=O)N1CCC[C@H]1C(N)=O [Peptide 9-12] (H-AGQP-NH2)	–	–	virtually inactive	–	virtually inactive	virtually inactive	–
NAGQP-NH2 [Peptide 8-12]	–	–	virtually inactive	–	virtually inactive	virtually inactive	–
DGANA-NH2 [Peptide 5-9]	–	–	virtually inactive	–	virtually inactive	virtually inactive	–
DGANAGQP-NH2 [Peptide 5-12, Asp5 -Gly-Ala-Asn-Ala-Gly-Gln-Pro12]	substantially identical; also recorded: very efficient inhibitors	0.001 nM	strongly inhibitory	0.01 nM	strongly inhibitory	strongly inhibitory	0.01 nM
GDGANAG-NH2 [Peptide 4-10]	–	0.1 nM	much less reactive; also recorded: diminished markedly	100 nM	diminished markedly	much less reactive; also recorded: diminished markedly	10000 nM
GDGANA-NH2 [Peptide 4-9]	–	–	virtually inactive	–	virtually inactive	virtually inactive	–
GDGANAGQ-NH2 [Peptide 4-11]	substantially equivalent	0.001 nM	almost identical; also recorded: little effect	0.1 nM	–	almost identical; also recorded: little effect	0.001 nM
ANAGQP-NH2 [Peptide 7-12]	–	100 nM	considerable drop in activity	1000 nM	considerable drop in activity	considerable drop in activity	1000 nM
C[C@H](N)C(=O)N[C@@H](CC(N)=O)C(=O)N[C@@H](C)C(N)=O [Peptide 7-9] (H-Ala-Asn-Ala-NH2)	–	–	virtually inactive	–	virtually inactive	virtually inactive	–
NCC(=O)N[C@@H](CCC(N)=O)C(=O)N1CCC[C@H]1C(N)=O [Peptide 10-12] (H-Gly-Gln-Pro-NH2)	–	–	virtually inactive	–	virtually inactive	virtually inactive	–
AQGDGANAGQP-NH2 [Peptide 2-12]	substantially equivalent; also recorded: very efficient inhibitors	0.001 nM	strongly inhibitory	0.01 nM	strongly inhibitory	strongly inhibitory	0.001 nM
DGANAGQ-NH2 [Peptide 5-11]	drop in reactivity	–	–	–	–	–	–
QGDGANAGQP-NH2 [Peptide 3-12]	substantially identical; also recorded: very efficient inhibitors	0.001 nM	strongly inhibitory	0.01 nM	strongly inhibitory	strongly inhibitory	0.001 nM
C[C@H](NC(=O)[C@H](CC(N)=O)NC(=O)[C@H](C)NC(=O)CN)C(N)=O [Peptide 6-9] (H-GANA-NH2)	–	–	virtually inactive	–	virtually inactive	virtually inactive	–
